The campaign covered roughly 310,000 compounds. About 14,000 (4.5%) showed an effect of 50% or more. Effects have a minus sign here. The list shows a part of the results.
What follows are compounds tested against human ether-à-go-go-related gene (hERG) potassium channel (human, UniProt Q12809) (assay: primary screen, population patch clamp on CHO cells stably expressing hERG).
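Further: peak tail current of the secondary pulse compared with the same well before compound.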

Sequence of human ether-à-go-go-related gene (hERG) potassium channel (Q12809 whole entry, looked up): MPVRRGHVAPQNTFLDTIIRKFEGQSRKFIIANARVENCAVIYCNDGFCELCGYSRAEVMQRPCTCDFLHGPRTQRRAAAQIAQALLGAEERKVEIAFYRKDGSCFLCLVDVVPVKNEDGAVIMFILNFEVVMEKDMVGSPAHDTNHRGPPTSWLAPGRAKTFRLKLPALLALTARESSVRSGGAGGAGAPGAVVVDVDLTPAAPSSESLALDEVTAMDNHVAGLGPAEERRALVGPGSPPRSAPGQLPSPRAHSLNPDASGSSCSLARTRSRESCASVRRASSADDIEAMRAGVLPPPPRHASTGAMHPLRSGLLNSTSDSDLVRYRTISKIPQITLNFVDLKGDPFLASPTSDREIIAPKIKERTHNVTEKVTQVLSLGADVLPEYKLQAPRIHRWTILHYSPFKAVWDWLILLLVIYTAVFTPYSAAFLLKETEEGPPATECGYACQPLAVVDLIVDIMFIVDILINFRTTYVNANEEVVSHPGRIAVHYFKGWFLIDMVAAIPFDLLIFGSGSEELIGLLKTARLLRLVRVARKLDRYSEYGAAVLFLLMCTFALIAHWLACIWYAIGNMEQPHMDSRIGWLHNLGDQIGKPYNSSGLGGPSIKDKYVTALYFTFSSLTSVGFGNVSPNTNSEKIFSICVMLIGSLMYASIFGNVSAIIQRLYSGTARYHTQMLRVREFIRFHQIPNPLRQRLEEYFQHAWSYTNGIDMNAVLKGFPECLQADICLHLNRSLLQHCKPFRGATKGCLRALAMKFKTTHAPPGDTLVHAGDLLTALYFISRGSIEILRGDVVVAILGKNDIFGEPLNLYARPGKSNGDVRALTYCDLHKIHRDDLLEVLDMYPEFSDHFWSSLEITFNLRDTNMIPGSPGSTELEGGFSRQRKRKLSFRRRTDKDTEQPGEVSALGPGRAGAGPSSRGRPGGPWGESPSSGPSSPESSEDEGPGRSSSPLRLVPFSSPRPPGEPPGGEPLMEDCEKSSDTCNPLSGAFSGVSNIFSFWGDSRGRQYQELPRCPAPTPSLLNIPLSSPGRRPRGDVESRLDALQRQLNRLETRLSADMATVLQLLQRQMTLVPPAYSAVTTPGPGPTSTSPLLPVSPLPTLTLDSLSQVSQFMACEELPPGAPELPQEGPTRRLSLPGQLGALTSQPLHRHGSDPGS

| Compound | hERG current change (%, negative = inhibition) at 10uM [%] |
| --- | --- |
| Cc1nnc(SC(C(=O)Nc2ccc(Cl)c([N+](=O)[O-])c2)c2ccccc2)[nH]c1=O (centres unmarked) | 20.7 |
| COc1ccc(OCCNc2cc(N3CCCCC3)ccc2[N+](=O)[O-])cc1 | 11.2 |
| O=C(NCc1ccco1)c1cc2sccc2n1Cc1ccccc1 | -15.7 |
| CCOC(=O)CSc1nnc(-c2cccc(Br)c2)o1 | 1.27 |
| COc1ccc(N(CC(=O)NC2CCCC2)C(=O)CCC(=O)Nc2cc(C)on2)c(OC)c1 | -12.4 |
| O=C(O)CCc1ccc(-c2ccc(Br)cc2)n1NC(=O)c1ccc([N+](=O)[O-])cc1 | 2.6 |
| COc1ccc(Br)cc1/C=N/n1c(C)nnc1C | -1.89 |
| NC(=O)Cn1cc(C=C2C(=O)NC(=O)NC2=O)c2ccccc21 | 20.3 |
| CC1CN(CC(=O)Nc2cccc(C(=O)Nc3cccc(C(F)(F)F)c3)c2)CC(C)O1 (centres unmarked) | -54.3 |
| Cn1c(C(=O)NCCOc2ccccc2Cl)cc(=O)n(C)c1=O | 14.5 |
| CCc1nnc(NC(=O)[C@@H](NC(=O)c2cccc(S(=O)(=O)N3CCOCC3)c2)C(C)C)s1 | 6.16 |
| CCOc1ccc(N2CC(C(=O)Nc3nnc(C4CCCCC4)s3)CC2=O)cc1 (centres unmarked) | -14.6 |
| Cc1c(C(=O)OCC(=O)N(C)C2CCS(=O)(=O)C2)oc2ccc(Br)cc12 (centres unmarked) | -23.8 |
| O=C(/C=C/c1ccc(S(=O)(=O)N2CCOCC2)cc1)NCc1ccccc1 | -4.31 |
| CCOc1ccc(C2NC(=O)NC(C)=C2C(=O)OCc2ccccc2)cc1 (centres unmarked) | -4.23 |
| CCn1c(COc2cccc(C)c2)nc2ccccc21 | 0.719 |
| CN1CCC[C@H]1c1cccnc1.O=C(O)C(O)C(O)C(=O)O | -4.63 |
| CCOCc1nnc(NC(=O)CCC2CCCCC2)s1 | 14 |
| CC1CN(c2nc3c(c(=O)n(C)c(=O)n3C)n2Cc2c(Cl)cccc2Cl)CC(C)O1 (centres unmarked) | -10.5 |
| CCC(=O)Nc1nnc(-c2ccncc2)s1 | 19.3 |
| COc1ccc2c(c1)cc1c(=O)n(CC(=O)NC(C)CCc3ccccc3)nc(C)n12 (centres unmarked) | 19 |
| CC1=C/C(=N\OC(=O)/C=C/c2ccccc2)C(C)=CC1=O | 1.92 |
| Cc1nc(C2CCC3C4CCC5=CC(=O)CC[C@]5(C)C4CC[C@]23C)cs1 (some centres unmarked) | 22 |

| Compound | hERG current change (%, negative = inhibition) at 10uM [%] |
| --- | --- |
| Cn1cnnc1SCC(=O)OCN1C(=O)c2ccccc2C1=O | 13 |
| CCOc1ccccc1NC(=S)NCc1ccco1 | 20.3 |
| COc1ccc(C2c3ccc4ccccc4c3Oc3ncn(CCCO)c(=N)c32)cc1OC (centres unmarked) | -62.3 |
| CNC(=O)c1c(NC(=O)CCS(=O)(=O)c2ccc(Cl)cc2)sc2c1CCN(C(=O)OC)C2 | -21.7 |
| COc1ccc(OC)c(C2Nc3nc4ccccc4n3C(C)=C2C(=O)Nc2ccc(C)cc2C)c1 (centres unmarked) | -16 |
| O=C(Nc1ccc(SC(F)F)cc1)C1CC(=O)N(Cc2ccccc2)C1 (centres unmarked) | -48 |
| COc1ccc(NC(=O)CN2CCN(C(=O)N3CCOCC3)CC2)cc1 | -14.2 |
| C=CCc1cccc(CNc2ccc(Br)cc2)c1O | 9.44 |
| CCc1ccc(-c2cc3c(=O)n(CC(=O)N4CCCCCC4)nc(C)n3n2)cc1 | 12.9 |
| COc1ccc(N/N=C(/C(C)=O)N2CCCc3ccccc32)cc1 | 3.55 |
| COc1cccc(CN2CCN(Cc3cccn3-c3cccnc3)CC2CCO)c1 (centres unmarked) | -71.4 |
| O=S1(=O)CCC(NC(=S)Nc2ccc3ccccc3c2)C1 (centres unmarked) | 9.66 |
| CNC(C)C#Cc1c(-c2cc(OC)c(OC)c(OC)c2)noc1C (centres unmarked) | -23 |
| CSCC[C@@H](C(=O)NCCCCCCCCCCC(=O)N1CCN(C(=O)OC(C)(C)C)CC1)n1cc(CCO)nn1 | 9.05 |
| Cc1ccccc1NC(=O)CSc1nc2n(n1)CCCCC2 | 22.7 |
| CCOC(=O)c1ccc(NC(=O)CSc2nc3c(c(=O)n2C)SC(C)C3)cc1 (centres unmarked) | -14 |
| COc1ccc(C2=NOC(C(=O)Nc3cccnc3)C2)cc1 (centres unmarked) | -4.33 |
| O=C(O)C1=C[C@@H](c2ccc(F)cc2)C[C@@H](OCCCCO)O1 | 10.4 |
| CC(=O)N/C(=C\c1ccccc1)C(=O)OCc1cc(C)ccc1C | -49.8 |
| Cc1cc(C)nc(/N=C(\N)Nc2ccc(S(=O)(=O)Nc3nc(C)cc(C)n3)cc2)n1.Cl | 38 |
| Cc1nc2sc(C(c3ccco3)N3CC(C)OC(C)C3)c(O)n2n1 (centres unmarked) | -19.4 |
| COc1ccc(CNC(=O)CS(=O)Cc2nc(-c3ccc(OC)c(OC)c3)oc2C)cc1 (centres unmarked) | -9.07 |
| CC(C)(C)NC(=O)CN1C(=O)/C(=C/c2ccccc2)SC1=S | 10 |

| Compound | hERG current change (%, negative = inhibition) at 10uM [%] |
| --- | --- |
| CCSc1ncc(CO)c(N)n1 | 12.1 |
| CCC(C)c1ccc(S(=O)(=O)N2CCN3CCCC3C2)cc1 (centres unmarked) | 2.84 |
| COC(=O)c1c(NC(=O)c2ccc(Br)o2)sc(C)c1C | 12.3 |
| COc1ccc(OC)c(NC(=O)C2CCC(CNc3c(N4CCOCC4)c(=O)c3=O)CC2)c1 (centres unmarked) | 18.1 |
| CC(C)Cc1ccc(C(C)C(=O)OCC(=O)c2c[nH]c3ccccc23)cc1 (centres unmarked) | 3.98 |
| COC(=O)/C=C/c1ccc(OC(=O)OC)c(OC(=O)OC)c1 | 16.6 |
| COc1ccc(C2C(C(C)=O)=C(C)Nc3ncnn32)c(OC)c1OC (centres unmarked) | 12.8 |
| CCOC(=O)C1CCCCN1Cc1ccc(OC)c(OC)c1 (centres unmarked) | 8.2 |
| CN(C)CC(C)(C)CNS(=O)(=O)CC12CCC(CC1=O)C2(C)C (centres unmarked) | 5.78 |
| Cc1c(NCc2cc(Cl)cc(Cl)c2O)c(=O)n(-c2ccccc2)n1C | -21.1 |
| Cc1ccc(N2C(S)=C(C#N)C(=O)NC2c2cccs2)cc1 (centres unmarked) | 15.2 |
| COC(=O)C1ON2OC(C(=O)OC)C(C(=O)OC)C2C1CC(C)=O (centres unmarked) | 17.1 |
| COc1ccc(-c2c(C)nc3c(-c4ccsc4)cnn3c2N)cc1 | 4.86 |
| CCc1ccc(C2N(c3ccc(OC)cc3)C(=O)C3CCCN32)cc1 (centres unmarked) | -8.05 |
| CCN1CCC(O)(c2ccccc2)C(C(=O)c2ccccc2)C1 (centres unmarked) | -7.58 |
| C(#Cc1ccc2c(c1)COc1c3ccccc3nn1-2)c1ccccc1 | 2.08 |
| Cc1c(Cl)cccc1NC(=O)CN1CCC(C(O)(c2ccccc2)c2ccccc2)CC1 | -12.3 |
| COC(=O)c1csc(S(=O)(=O)N2CCCCC2)c1OC | -6.23 |
| O=C(COc1ccc(Cl)cc1)N1CCN(C2CCCC2)CC1.O=C(O)C(=O)O | -83.2 |
| CC(=O)NCC(O)c1ccc([N+](=O)[O-])cc1 (centres unmarked) | 13.6 |
| O=C(NC1=NCCS1)c1ccccc1Br | 15 |
| C/C(=N\NC(=O)c1ccc(Cn2cc([N+](=O)[O-])cn2)o1)c1cccc(NC(=O)c2cccnc2)c1 | 6.77 |
| COc1ccc(CNC(=O)c2cc(S(=O)(=O)N3CCCC3)cn2C)cc1 | 13.2 |

| Compound | hERG current change (%, negative = inhibition) at 10uM [%] |
| --- | --- |
| Cc1ccc(NC(=O)CSc2ncnc3ccccc23)cc1S(=O)(=O)N1CCCCC1 | -14.1 |
| CCc1c(C)nc(SCC(=O)N2C(C)CCCC2C)[nH]c1=O (centres unmarked) | 26.7 |
| Br.COc1ccc(-c2csc(Nc3ccc(O)cc3)n2)cc1 | 7.99 |
| COC(=O)C(NC(C)=O)(Nc1sc2c(c1C(N)=O)CCCC2)C(F)(F)F (centres unmarked) | 17.8 |
| CCOC(=O)C1(CC2CC2)CCN(S(=O)(=O)/C=C/c2ccccc2)CC1 | -18.4 |
| N#Cc1c(Cn2cncn2)nc(=O)n(-c2ccccc2)c1N | 15.8 |
| CCCn1c(Nc2nc3ccccc3n2C)nc2ccccc21 | 1.67 |
| CN(C)c1ccc(C(=S)N2CCCCC2)cc1Br | 7.12 |
| CCOC(=O)C1CCN(C(=O)C2(NC(=O)Nc3ccccc3C)CCCCC2)CC1 | 19.9 |
| CN(C)C(=O)C1C2NC(=S)N(c3ccccc3)C1(C)Oc1ccccc12 (centres unmarked) | -2.29 |
| CCCOc1ccc(Cl)cc1CN1CCOCC1.Cl | -0.916 |
| COc1ccc(CNC(=S)N/N=C(/C)c2ccccc2)cc1 | -6.47 |
| COc1ccc(OCCCC(=O)Nc2cc([N+](=O)[O-])ccc2C)cc1 | -1.95 |
| Cc1cc(C)c(S(=O)(=O)Nc2ccc[nH]c2=O)c(C)c1 | 0.123 |
| Cc1ccc(CNC(=O)Cc2cccs2)cc1 | 8.71 |
| O=C(Nc1c2c(nc3c1CCC3)CCCC2)c1ccccn1 | -18.8 |
| COc1cccc(C2c3[nH]c4ccccc4c3CCN2Cc2ncc[nH]2)c1 (centres unmarked) | -49.4 |
| O=C1COc2ccc(S(=O)(=O)N3CCN(c4cccc(C(F)(F)F)c4)CC3)cc2N1 | 15.3 |
| c1ccc(-c2cnc(CSc3nnc4ccccn34)o2)cc1 | 3.41 |
| Cc1cc(NS(=O)(=O)c2ccc(NC(=S)NC(=O)c3ccc(Cl)cc3Cl)cc2)no1 | -10.5 |
